Experimental data reported in PubChem BioAssay AID1508624 (National Center for Advancing Translational Sciences (NCATS), 2021).
The whole screen tested about 48,000 compounds, of which about 120 (0.25%) were called active. Another 4% or so got no clear call; they are omitted. Calls come from the whole dose curve; as a rule, active = well fitted activation curve with a large enough effect; inconclusive = small, poorly fitted or top-dose-only effect, or another doubt; inactive = no such curve, though single readings can be large or run the other way. This is one part of the list.

test: Primary qHTS for Identification of Small Molecule Activators of Huntingtin-Antisense Promoter Activity; details: HEK293 HTT-AS promoter firefly luciferase reporter, 24 h; series mostly up to 57.5 µM; activity change, positive = activation: at the top concentration; note: nearly all actives have a fitted effect of over 55% in size
Summary of the method: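 HEK293 cells carrying firefly luciferase reporters were seeded at 2,500 per well in Opti-MEM and cultured for 24 h. They were then treated with compounds at up to 57.5 uM final for 24 h at 37 degrees C before Dual-Glo luminescence readout.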

Activity change, positive = activation, inactive:
COc1ccc(-c2nc3nc(C)cc(Nc4ccc(C(C)=O)cc4)n3n2)cc1 -9.56%
CCOc1ccc(-c2ccc(NS(=O)(=O)c3cc(C)c(C)cc3C)cc2)nn1 -27.1%
CNC1[C@H](O)C(O[C@@H]2C(O)C(O[C@H]3O[C@H]([C@@H](C)NC)CC[C@H]3N)[C@@H](N)C[C@H]2N)OC[C@]1(C)O (some centres not stated) -15.1%
CCN(C(=O)COc1cc(=O)n(C)c2ccccc12)c1cccc(C(F)(F)F)c1 -16.1%
CCOc1ccc(CCNC(=O)c2ccc(CS(=O)(=O)Cc3ccccc3Cl)o2)cc1OCC -38.8%
Cc1ccc2c(c1)c1c3n2CCNC3CCC1 (configuration not stated) -2.89%
CCOc1ccc(C(=O)Nc2ccc(-c3nc4cc(CC)ccc4o3)cc2)cc1 1.84%
O=C(c1cc2c(=O)[nH]c3ccccc3c2s1)N1CCN(c2ccc(F)cc2)CC1 -13.1%
CC(NC(=O)CCn1c(=O)c2cccn2c2ccc(F)cc21)c1ccccc1 (configuration not stated) -3.28%
COc1cccc(N2CC(NC(=O)Cc3cccs3)CC2=O)c1 (configuration not stated) -6.99%
Cc1ccc2c(c1)c1c(c(=O)n(-c3ccccc3)c(=O)n1CC(=O)N1CCCC1)n2C -3.9%
CCn1cc(C(=O)NCCc2ccc(C)cc2)c(=O)c2cc(S(=O)(=O)N(C)C)ccc21 -7.21% [at 11.5 µM, percent change from vehicle, -100% = no light]
CN1C(=O)CC(=O)N(C)c2cc(S(=O)(=O)N(C)Cc3ccccc3)ccc21 5.88%
Cc1ccccc1C(=O)Nc1ccccc1C(=O)OCc1cc(=O)n2ccsc2n1 -20.9%
CCCCN(CCCC)CCNC(=O)c1cn(C)c2ccc(S(=O)(=O)N3CCOCC3)cc2c1=O 4.65% [at 11.5 µM, percent change from vehicle, -100% = no light]
Cc1c(Cl)cccc1NS(=O)(=O)c1ccc2[nH]cc(C(=O)NC3CCCC3)c(=O)c2c1 -46.7%
Cc1ccc(S(=O)(=O)c2nc(-c3cccs3)oc2N2CCCCC2)cc1 -18.9%
COc1ccc2c(c1)c1c(c(=O)n(-c3ccc(OC)c(OC)c3)c(=O)n1Cc1ccccc1C)n2C -2.31%
CC(=O)c1cccc(NS(=O)(=O)c2ccc3[nH]c4c(c3c2)CCCCCC4)c1 -30.6%
Cc1ccc(-n2ncc(C(=O)NCCN3CCN(C)CC3)c2C2CCN(C(=O)OC(C)(C)C)CC2)c(C)c1 2.6%
O=S(=O)(c1ccc(Br)cc1)c1nc(-c2ccco2)oc1SCc1ccccc1Cl -9.8%
Cc1ccc(CCNC(=O)c2nn(C)c3c2CSc2ccccc2-3)cc1 -26.7%
CCCCOc1ccc(CNC(=O)CN2CCSc3ccccc32)cc1 -27%
COc1cccc(CNC(=O)CCn2c(=O)c3cccn3c3ccc(F)cc32)c1OC -18.3%
COc1ccc(-n2nc(C(=O)N(C)c3cccc(C(F)(F)F)c3)c3c4ccccc4n(C)c3c2=O)cc1 -0.434%
NC(=O)c1cccc(-c2cc(Nc3ccc(OC(F)(F)F)cc3)ncn2)c1 -12%
CCCNC(=O)C1CCC(Cn2c(=O)c3sccc3n(Cc3cccc(OC)c3)c2=O)CC1 (configuration not stated) -11.6%
CCC(C(=O)N1CCN(c2cccc(C)c2C)CC1)n1nc(C)c2sc3ccccc3c2c1=O (configuration not stated) -4.29%
Cc1nc2nc(NC(=O)c3cccc(Cl)c3)[nH]n2c(=O)c1Cc1ccccc1 21.1%
CCOC(=O)C1CCC(CN(Cc2ccccc2)S(=O)(=O)c2ccc(Cl)cc2)CC1 (configuration not stated) -20.4%
CCOc1ccc(-n2c(-c3ccc(C)cc3)nc3c(cnn3-c3ccccc3)c2=O)cc1 -5.97%
Cc1ccc(NC(=O)CCn2c(=O)c3cccn3c3ccccc32)c(Cl)c1 -28.3%
COc1ccc(CCNC(=O)CCc2c(C)nc3c(c(C)nn3-c3ccc(C)c(C)c3)c2C)c(OC)c1OC -12.3%
CCOC(=O)c1c(S(=O)(=O)N2CCC(C(=O)Nc3ccccc3OC)CC2)c(C)n(CC)c1C 15.6%
COc1ccc(CCNC(=O)Cn2cc(C(=O)c3ccccc3)c(=O)c3ccc(C)nc32)cc1OC -10.3%
NS(=O)(=O)c1ccc(CCNC(=O)CCCCCn2c(=O)[nH]c3ccccc3c2=O)cc1 2%
COc1ccc(NC(=O)c2cn(CC(C)C)c(=O)c3cc(OC)c(OC)cc23)cc1Cl -34.5%
Cc1ccc(NC(=O)c2nn(C)c3c2CS(=O)(=O)c2ccccc2-3)c(Cl)c1 39.5%
Cc1nc(N2CCOCC2)c2c(C(=O)NCc3cccc(Cl)c3)c(C)oc2n1 1.37%
Oc1c(C(c2ccccc2)N2CCC3(CC2)OCCO3)sc2nc(-c3ccco3)nn12 (configuration not stated) -10.6%
O=C(CCCCCn1c(=O)c2sccc2n(CC(=O)Nc2cccc(Cl)c2)c1=O)NCc1ccc2c(c1)OCO2 -32.4%
CCOC(=O)Cc1ccc(NC(=O)Nc2cccc(OCc3cc(=O)n4cc(C)ccc4n3)c2)cc1 4.25%
COc1ccc(-c2nc3c(c(SCC(=O)Nc4ccc(C(=O)O)cc4)n2)Cc2ccccc2O3)cc1 -18.1%
CCc1cccc(NC(=O)CSc2ncc3c(n2)-c2ccc(Cl)cc2N(Cc2ccccc2)S3(=O)=O)c1 -1.27%
CCc1c(C)sc2c1CCN(C(=O)Nc1cc(OC)c(OC)c(OC)c1)C2c1ccccc1 (configuration not stated) -51.5%
COc1cccc(C(=O)NC2(C(F)(F)F)C(=O)Nc3c2c(=O)[nH]c(=O)n3-c2ccc(C)cc2)c1 (configuration not stated) -14.6%
CN(Cc1ccccc1)C(=O)CN1C(=O)CSc2ccc(S(=O)(=O)N3CCOCC3)cc21 -6.49%
COc1ccc(OC)c(S(=O)(=O)Nc2cc3c(cc2C)n(C)c(=O)c(=O)n3C)c1 -7.89%
COc1ccc(NC(=O)CCS(=O)(=O)c2nc(-c3cccs3)cc(C(F)(F)F)n2)cc1OC -93.8%
O=C(c1noc2c1CCCCC2)N1CCN(c2ccc(Cl)cc2)CC1 -23.8%
CCc1ccc(-c2cn3c(n2)sc2cc(C(=O)NCCc4ccc(OC)cc4OC)ccc23)cc1 -25.2%
COc1ccccc1NC(=O)Cn1c(=O)n(Cc2ccc3c(c2)OCO3)c(=O)c2oc3ccccc3c21 -6.57%
C#CC(C)(C)NS(=O)(=O)c1cc(-c2nnc(Nc3ccc(C)cc3)c3ccccc23)ccc1C -17.4%
Cc1ccc(NC(=O)NCc2ccc3c(c2)CCN3C(=O)c2ccccc2)c(Cl)c1 -25.8%
Cc1ccc(NC(=O)CN(c2ccccc2)S(=O)(=O)N(C)C)cc1Cl -33.2%
CCOC(=O)c1oc2ccc(S(=O)(=O)n3nc(-c4ccccc4OC)cc3N)cc2c1C -34%
O=C(c1ccc2c(c1)N(Cc1ccccc1F)C(=O)c1ccccc1S2(=O)=O)N1CCOCC1 -17.2%
CCCN(CCC)CCCNC(=O)Cn1cnc2sc(C)c(S(=O)(=O)N3CCCCC3)c2c1=O -0.7%
CCCN(Cc1cccs1)C(=O)Nc1cc(Cl)c(OC)cc1OC -18.2%
Cc1ccc(-c2nc3nc(C)cc(N4CCN(c5cc(Cl)ccc5C)CC4)n3n2)cc1 -12.7%
COc1cccc(-n2c(SCC(=O)Nc3cc(C)ccc3C)nc3c(oc4ccccc43)c2=O)c1 -17.3%
COc1ccc(-c2cc(C(=O)Oc3ccccc3)c3cc(C)ccc3n2)cc1 19.5%
CCn1c(=O)n(-c2ccc(C)c(F)c2)c(=O)c2sc3ccccc3c21 -12.2%
COc1ccc(C2=NC3(CCCCC3)N(CC(=O)Nc3ccc(C(C)C)cc3)C2=O)cc1 -20.6%
CCOCCCNC(=O)c1ccc2nc(CCc3ccccc3)oc2c1 21.7%
CCc1ccc(NC(=O)C(NS(=O)(=O)c2cccs2)C(C)C)cc1 (configuration not stated) -19.5%
CCCCN(C)CCNC(=O)c1ccc2c(=O)n(CCc3ccccc3)c(=O)[nH]c2c1 6.29%
Cn1c(=O)c2c(c3ccccc31)OC(=O)CC2c1ccc(C(F)(F)F)cc1 (configuration not stated) 11.2%
O=C(Nc1ccc2oc(-c3cccc4c(Br)cccc34)nc2c1)c1ccc(F)cc1 1.8% [at 11.5 µM, percent change from vehicle, -100% = no light]
COc1cccc(NC(=O)c2sc3nc(C)c(C(=O)Nc4ccc(C)cc4C)c(-c4ccccc4Cl)c3c2N)c1 -0.786%
CCc1ccc(-c2nc(CN3CCC(C(=O)NCCc4ccc(Cl)cc4)CC3)c(C)o2)cc1 -2.48%
CC1(C)O[C@H]2CC(=O)OC[C@]23[C@H]2CC[C@@]4(C)[C@H](c5ccoc5)OC(=O)[C@H]5O[C@]54[C@]2(C)C(=O)C[C@@H]13
O=C1CSC(=O)N1C(CCc1ccncc1)COc1ccc(-c2cccc([N+](=O)[O-])c2)cc1 (configuration not stated) -65.3%
Cc1ccc(CCNC(=O)c2ccc(NC(=O)N3CC(C)Sc4ccccc43)cc2)cc1 (configuration not stated) -5.7%
COC(=O)C1=C(c2ccccc2)c2ccccc2S(=O)(=O)N1CC(=O)Nc1cccc(C(C)=O)c1 -36.2%
NC(N)=NC(=O)Cc1c(Cl)cccc1Cl -14.9%
COc1cccc(CN2CCc3nc(Nc4ccc5c(c4)OCCO5)ncc3C2)c1 -2.08%
Cc1ccc2nc(N(Cc3cccnc3)C(=O)Cc3ccccc3)sc2c1 -9.73%
CCOC(=O)c1ccccc1NC(=O)Cn1ncc2c([nH]c3ccccc32)c1=O -24.7%
COc1cccc(C2CC(=O)Nc3cc4c(cc32)OCCO4)c1OC (configuration not stated) -27.7%
CCc1ccccc1NC(=O)CCn1nc(C)c2c(C)n(-c3ccccc3)nc2c1=O 14.6%
Cc1ccccc1Cn1c(SCc2ccc(C(=O)NC(C)c3ccccc3)cc2)nc2ccncc21 (configuration not stated) -19.5%
CCc1ccc(-n2c(=O)c3c4c(sc3n(CC(=O)NCCCOC)c2=O)CCCC4)cc1 -8.29%
O=C(NCCc1cccs1)c1ccc(Cn2c(SCc3ccc(F)cc3)nc3cccnc32)cc1 21.5%
COc1ccc(C(=O)CN2CCN(S(=O)(=O)c3ccc(C(C)C)cc3)CC2)cc1 -25.1%
N=c1c(C(=O)NCC2CCCO2)cc2c(=O)n3ccccc3nc2n1CCCO (configuration not stated) 19.9%
COc1ccc(F)cc1S(=O)(=O)NCC(c1ccco1)S(=O)(=O)c1ccc(F)cc1 (configuration not stated) -9.41%
